These results are taken from ChEMBL document CHEMBL4888484, “Replenishing the malaria drug discovery pipeline: Screening and hit evaluation of the MMV Hit Generation Library 1 (HGL1) against asexual blood stage Plasmodium falciparum ,using a nano luciferase reporter read-out” (2022).

SMILES strings stand for the structures. Screen size: about 150,000 compounds; about 540 (0.36%) showed an effect of 50% or more. The list shows a part of the results.

In this assay the test system is Plasmodium falciparum. Description: Primary screen in NF54 nanoGlo assay, in single point, at 2uM, 72h; a lower Z score goes with more inhibition. The class given is functional, Erythrocyte. The following applies: timepoint 72 hour.
Regarding `Cc1cc(C)n(C(=O)CNC(=O)c2ccccn2)n1`, the “% Inhibition” value is 40% and the Z score is reported as -5.14.

Turning to `Cc1cc(O)c(C(C)C)cc1NC(=O)Nc1c(C)ccn(C)c1=O`, the “% Inhibition” value is -7% and the Z score came out at 1.09.

For the compound `CCCc1[nH]nc(CCc2ccc(OC)cc2)c1NC(=O)C1CCCCC1`, the “% Inhibition” value was -9% and the Z score amounted to 1.59.

With `CCc1nc2c(c(NCCCOc3cccnc3)n1)CCNCC2`, the “% Inhibition” value was determined as 12% and the Z score is reported as -1.57.

For `C[C@H](O)CN(CC(=O)Nc1ccc(Cl)cc1)Cc1cccnc1`, the “% Inhibition” value is on record as -6% and the Z score stood at 1.16.

Turning to `O=C1CCN(CCCc2ccccc2)CCN1Cc1cc2c(cc1Cl)OCO2`, the “% Inhibition” value turned out to be 6% and the Z score is recorded as -0.7.

Turning to `CCOc1ccc(Nc2nc(-c3cccc(Cl)c3)c3c(n2)-c2ccccc2OC3)cc1`, the “% Inhibition” value was -6% and the Z score was determined as 0.86.

On to `C[C@@H](C(=O)N1CCCCC1)S(=O)(=O)c1ccc2c(c1)CCCC2`, for which the “% Inhibition” value is listed as -6% and the Z score came out at 0.97.

As for `CCc1n[nH]c(=O)c2cc(S(=O)(=O)NCc3ccco3)cn12`, the “% Inhibition” value was 6% and the Z score was -0.78.

`COC[C@H]1C[C@@H](NCc2cccc(Cl)c2)[C@H](O)[C@@H]1O`: the “% Inhibition” value was -6% and the Z score came out at 0.89.

Turning to `CC(C)N(C)c1ccccc1CNC(=O)NC[C@H](C)O`, the “% Inhibition” value turned out to be 4% and the Z score is listed as -0.45.

Turning to `C[C@H]1CN(C(=O)CCCn2cncn2)CCN1c1ccccc1`, the “% Inhibition” value is listed as -8% and the Z score was 1.24.

As for `CN(CCN(C)C1CC1)C(=O)c1cnc(C2CCCC2)nc1N`, the “% Inhibition” value is on record as -4% and the Z score turned out to be 0.84.

Regarding `Cn1cc(NC(=O)CCCc2nnc3ccccn23)cn1`, the “% Inhibition” value is -7% and the Z score stood at 1.35.

As to `O=C(c1ccn(C(=O)c2ccccc2Cl)n1)N1CCCCC1`, the “% Inhibition” value worked out at 12% and the Z score is given as -1.44.

Regarding `O=C1CCCC(C(=O)NC[C@@H]2C[C@H]2C2CCCCC2)N1` (stereo partly specified), the “% Inhibition” value is -3% and the Z score was 0.31.

For `COc1ccc(S(=O)(=O)N(C)c2ccnc(C(=O)NCc3ccc4c(c3)OCO4)c2)cc1`, the “% Inhibition” value is given as -2% and the Z score came out at 0.38.

As for `OCCN(CCO)c1ccccc1N(CCO)CCO`, the “% Inhibition” value is given as -9% and the Z score is 1.76.

Take `C[C@H](NC(=O)c1n[nH]c(=O)c2ccccc12)c1ccncc1`: the “% Inhibition” value is on record as -4% and the Z score is recorded as 0.51.

With `Cc1ccsc1CN1CC[C@](C)(O)[C@H](CC(C)C)C1`, the “% Inhibition” value was -7% and the Z score worked out at 1.34.

`c1ccc(CN2CCC(Nc3ccc4nnnn4n3)CC2)cc1`: the “% Inhibition” value is given as -8% and the Z score is 1.01.

In the case of `CN1CCN([C@H]2CCCCN(C(=O)N(C)c3ccc(F)cc3)C2)CC1`, the “% Inhibition” value is listed as 4% and the Z score is recorded as -0.64.

With `Cc1cc(C(=O)Nc2ccc(Oc3ccc(F)cc3F)nc2)ncn1`, the “% Inhibition” value was found to be 6% and the Z score was -0.88.

For the compound `Cc1ccc(NC(=O)c2cnn3c2NC(c2ccc(C)cc2)=C[C@H]3c2ccc(F)cc2)cc1`, the “% Inhibition” value was -3% and the Z score was determined as 0.27.

Consider `CC(C#N)CN(C)S(=O)(=O)N1CCCCC1c1nnc[nH]1` (stereo unspecified), for which the “% Inhibition” value is given as -3% and the Z score worked out at 0.33.

For the compound `Cc1ccc(S(=O)(=O)NCc2nc(-c3cccn3C)no2)s1`, the “% Inhibition” value came out at 4% and the Z score is reported as -0.51.

As for `Cc1ccc2c(c1)c(C)c1n2CC2COC1(C)O2` (stereo unspecified), the “% Inhibition” value is -2% and the Z score was 0.47.

For `CN(C)c1ccc(CCC(=O)N2CCNC(=O)C2)cc1`, the “% Inhibition” value is -5% and the Z score is on record as 0.79.

On to `CCCC(=O)Nc1ccc2c(c1)CN(C(=O)Cc1ccccc1C)[C@H](C(=O)N(C)C)C2`, for which the “% Inhibition” value is -12% and the Z score is reported as 1.96.

As for `CC(CO)(CO)NC(=O)C(=O)Nc1ccccc1`, the “% Inhibition” value is -12% and the Z score was determined as 1.64.

In the case of `CC[C@H](C)NC(=O)CCc1nnc2c3cc(-c4ccc(OC)cc4)nn3ccn12`, the “% Inhibition” value is given as -5% and the Z score was 0.73.

As to `CC1(C)CCN(C(=O)NCc2nnc([C@@H]3CCCO3)[nH]2)C1`, the “% Inhibition” value is reported as -5% and the Z score is listed as 0.89.

In the case of `CCN(Cc1c(C)nn(C)c1Cl)CC1CCOCC1`, the “% Inhibition” value was determined as 14% and the Z score is reported as -1.74.

With `O=C1c2ccccc2[C@](O)(c2ccccc2)N1C1CCCC1`, the “% Inhibition” value is reported as -5% and the Z score came out at 0.62.

On to `CCCCN(CC(N)=O)c1ncccn1`, for which the “% Inhibition” value was -5% and the Z score was 0.68.

With `CN(CC1(C)COC1)C(=O)Cc1cccnc1`, the “% Inhibition” value is reported as 10% and the Z score is -1.99.

Consider `CCC(C)n1ncc(NC(=O)NC2CC(C)(C)c3ccccc32)c1C` (stereo unspecified), for which the “% Inhibition” value came out at 1% and the Z score is -0.19.

As to `COCCO/C(=N/C(=O)c1ccccc1F)NCc1ccccn1`, the “% Inhibition” value was -4% and the Z score is 0.53.

Consider `COc1cccc(CN2CC3(CCN(C(=O)c4ccoc4C)CC3)CC2=O)c1`, for which the “% Inhibition” value is -7% and the Z score is reported as 1.1.

As for `COCCN(CC(=O)N(Cc1ccc2c(c1)OCO2)Cc1cccs1)C(=O)Nc1cc(C(F)(F)F)cc(C(F)(F)F)c1`, the “% Inhibition” value came out at 3% and the Z score is -0.42.

As for `Cc1nc(-c2csc(-c3cccs3)n2)n(CCO)n1`, the “% Inhibition” value is -6% and the Z score is recorded as 1.

In the case of `Cc1noc([C@H](C)NC(=O)CCc2ccccc2Cl)n1`, the “% Inhibition” value was -6% and the Z score stood at 0.81.

In the case of `CC1CC2c3cccc(C(=O)O)c3C(=O)N2C(C)c2ccccc21` (stereo unspecified), the “% Inhibition” value is given as 0% and the Z score is recorded as -0.09.

By % Inhibition is commonly meant the drop in the measured response relative to a control, in per cent.
